Source: PubChem BioAssay AID411 (National Center for Advancing Translational Sciences (NCATS), 2006)
Screen size: about 72,000 compounds; about 1,600 (2.2%) were called active. The shares of active, inactive and inconclusive entries below differ from those in the screen. The call rests on the fitted dose curve; in most records, active means well fitted inhibition curve with a large enough effect; inconclusive means small, poorly fitted or top-dose-only effect; inactive means flat fitted curve, though single readings scatter. No potency is given beside an inconclusive call; the fits are too rough.

What follows are compounds tested against Luciferin 4-monooxygenase (Photinus pyralis) (UniProt P08659) (assay: qHTS Assay for Inhibitors of Firefly Luciferase). Details: purified firefly luciferase, luminescence, 8 min; series mostly up to 57.1 µM; activity change, negative = inhibition: at the top concentration.
In short: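 Compounds were tested as concentration series (qHTS) against purified P. pyralis luciferase with luciferin and 10 uM ATP in 50 mM imidazole pH 7.2, 50 mM KCl, 7 mM MgCl2, 0.01% Tween 20, 0.05% BSA. Luminescence was read after 8 min at ambient temperature.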
Further: nearly all actives have a fitted effect of over 40% in size.
On the % scale 0 is the no-effect control and ±100 the full control effect; potency means the concentration at half of the fitted maximal effect; tags describe the fitted curve by direction and shape.

Chain of UniProt P08659 (P08659 whole entry, looked up): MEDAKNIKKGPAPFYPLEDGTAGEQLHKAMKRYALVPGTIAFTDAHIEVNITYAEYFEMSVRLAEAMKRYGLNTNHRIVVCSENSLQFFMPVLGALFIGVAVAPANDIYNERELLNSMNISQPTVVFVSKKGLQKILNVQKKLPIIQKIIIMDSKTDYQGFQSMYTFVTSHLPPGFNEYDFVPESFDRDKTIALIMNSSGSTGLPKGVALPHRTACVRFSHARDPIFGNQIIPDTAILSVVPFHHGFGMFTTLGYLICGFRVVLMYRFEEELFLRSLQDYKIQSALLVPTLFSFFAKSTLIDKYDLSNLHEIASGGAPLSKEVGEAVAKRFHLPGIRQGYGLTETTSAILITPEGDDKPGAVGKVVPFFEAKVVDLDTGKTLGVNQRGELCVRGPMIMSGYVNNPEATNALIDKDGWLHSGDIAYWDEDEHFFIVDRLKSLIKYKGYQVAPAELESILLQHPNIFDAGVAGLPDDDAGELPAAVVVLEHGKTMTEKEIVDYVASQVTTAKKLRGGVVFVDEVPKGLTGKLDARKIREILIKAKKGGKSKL

| Compound | Potency | activity change, negative = inhibition |
| --- | --- | --- |
| Cc1ccc2nc3sc(C(=O)N4CCOCC4)c(N)c3cc2c1 | active: 2 µM | – |
| CCOc1ccc(NC(=O)c2ccccc2CO)cc1 | inconclusive [inhibitor, single point] | – |
| N=C(C[C@@H](O)COc1ccccc1-c1ccccc1)N1CCCCC1 | – | inactive: 0.036% |
| CC(=O)Nc1cccc(NC(=O)CCCC(=O)O)c1 | – | inactive: -2.15% |
| c1c2c(cc3sc(N4CCOCC4)nc13)OCO2 | active: 15.8 µM | – |
| c1ccc2c(c1)NC1(CCCCC1)n1c-2nc2ccccc21 | active: 12.6 µM | – |
| O=C(/C=C\C=C/c1ccc2c(c1)OCO2)N1CCCCC1 | inconclusive [inhibitor, partial curve] | – |
| CC(C)Oc1cccc(C(=O)Nc2ccc(CN3CCOCC3)cc2)c1 | inconclusive [inhibitor, single point] | – |
| CCCn1c(C)cc(C(=O)COc2ncnc3sccc23)c1C | inconclusive [inhibitor, partial curve] | – |
| CCOC(=O)CSc1nc2cc(C)ccc2cc1C#N | inconclusive [inhibitor, single point] | – |
| C=CCSc1nnc2c(n1)[nH]c1c(C)cccc12 | inconclusive [inhibitor, partial curve] | – |
| CCOc1ccc(-c2cc(CCCC(=O)Nc3cc(OC)ccc3OC)no2)cc1 | inconclusive [inhibitor, partial curve] | – |
| O=C(Nc1ccc2c(c1)OCO2)c1cccs1 | inconclusive [inhibitor, single point] | – |
| Cc1ccc(Nc2nc(CSc3nnnn3C)cs2)cc1 | active: 12.6 µM | – |
| O=C(O)CNCC1COc2ccccc2O1 (stereo not given) | inconclusive [inhibitor, full curve] | – |
| Oc1ccccc1C1=Nc2nc3ccccc3n2C(c2ccccc2)C1 (stereo not given) | inconclusive [inhibitor, partial curve] | – |
| O=c1[nH]c2c(s1)C(c1ccco1)C1C3CCC(C3)C1S2 (stereo not given) | – | inactive: 3.35% |
| COc1cccc2[nH]c3c(N4CCCCC4)ncnc3c12 | inconclusive [inhibitor, single point] | – |
| c1ccc(-c2csc(N3CCCCCC3)n2)cc1 | inconclusive [inhibitor, single point] | – |
| COc1ncc2nc(-c3ccc(F)cc3)c(=O)n(CCc3ccccc3)c2n1 | – | inactive: 1.39% [at 11.4 µM] |
| Cc1cc(-c2nnco2)c(C)n1-c1ccccc1 | active: 12.6 µM | – |
| COC(=O)c1ccc(CSc2nc(-c3ccccc3)cs2)o1 | inconclusive [inhibitor, single point] | – |
| Cc1cc(N2CCOCC2)nc2ccc(NC(=O)CCC(=O)N3CCCCC3)cc12 | inconclusive [inhibitor, single point] | – |
| N#Cc1c(N)n(CCCN2CCOCC2)c2nc3ccccc3nc12 | – | inactive: -0.209% |
| Cc1cccc(Nc2nc(N)nc(CN3CCN(c4ccccc4F)CC3)n2)c1 | – | inactive: 0.236% |
| Clc1ccc(-c2cn3c(n2)CCC3)cc1 | active: 12.6 µM | – |
| COc1ccc2[nH]c(=O)c(CN(Cc3ccccc3)Cc3nnnn3CC3CCCO3)cc2c1 (stereo not given) | inconclusive [inhibitor, single point] | – |

| Compound | Potency | activity change, negative = inhibition |
| --- | --- | --- |
| O=C(CSc1nc2cc(Cl)ccc2s1)N1CCN(C(=O)c2ccco2)CC1 | inconclusive [inhibitor, single point] | – |
| CC(C)NC[C@@H](O)c1ccc(O)c2ncccc12 | – | inactive: -1.22% [at 11.4 µM] |
| CN(C)c1nc(N2CCCCC2)nc(N2CCCCC2)n1 | – | inactive: 1.2% |
| O=c1c(-c2ccc(F)cc2)nc2cnc(Oc3ccccc3)nc2n1C[C@H]1CCCO1 | – | inactive: -1.83% [at 11.4 µM] |
| CCCOC(=O)c1ccc(NC(=O)c2ccoc2C)cc1 | inconclusive [inhibitor, partial curve] | – |
| N#CC1=C(N)Oc2n[nH]c(-c3ccncc3)c2C1c1ccsc1 (stereo not given) | – | inactive: 0.192% |
| CCSc1nnc(NC(=O)c2ccccn2)s1 | inconclusive [inhibitor, single point] | – |
| Nc1nc2sc3c(c2cc1C(=O)N1CCOCC1)CCCC3 | inconclusive [inhibitor, partial curve] | – |
| CCNc1ncc2nc(-c3ccc(F)cc3)c(=O)n(Cc3ccc(F)cc3)c2n1 | – | inactive: 0.306% [at 11.4 µM] |
| CCNc1nc(N)c(C(=O)c2ccc(Cl)s2)s1 | inconclusive [inhibitor, single point] | – |
| COC(=O)CSc1nc2cc(OC)ccc2cc1C#N | inconclusive [inhibitor, partial curve] | – |
| Fc1ccccc1CSc1ncnc2c1oc1ccccc12 | active: 12.6 µM | – |
| COC(=O)c1cnn2c3c(c(C)nc12)CCCC3 | inconclusive [inhibitor, single point] | – |
| c1ccc(-c2cccc(N3CCCC4(CCNCC4)C3)c2)cc1 | inconclusive [inhibitor, single point] | – |
| Cc1nc2c(cnn2-c2ccc(Cl)cc2)c(=O)n1-c1ccc2c(c1)OCCO2 | – | inactive: 2.03% |
| O=C1N/C(=C\c2ccccc2)c2ccccc21 | – | inactive: -5.28% |
| CCCOc1ccc(N2C(=O)CC(SCCN)C2=O)cc1 (stereo not given) | inconclusive [inhibitor, single point] | – |
| CCOc1ccccc1-c1nc(-c2ccc(C)nc2OC)no1 | inconclusive [inhibitor, single point] | – |
| c1ccc(Nc2nc3ccccc3[nH]2)nc1 | active: 20 µM | – |
| CCOCC(=O)Nc1nc2ccc(OC)cc2s1 | inconclusive [inhibitor, single point] | – |
| COc1ccc(O[C@H]2C=C[C@@H](c3ccccc3)O[C@H]2COC(=O)NCc2cccc3ccccc23)cc1 | – | inactive: -0.311% [at 11.4 µM] |
| C[C@@](N)(C(=O)O)c1cccc(CC(=O)O)c1 | – | inactive: 1.76% |
| Cc1noc(C)c1C(=O)Nc1nnc(-c2ccccc2)s1 | inconclusive [inhibitor, single point] | – |
| Nc1ccc(-c2nc3c(Cl)c(N)ccc3[nH]2)cc1 | active: 15.8 µM | – |
| Cc1ccc(NC(=O)c2ocnc2C)cc1Cl | inconclusive [inhibitor, partial curve] | – |
| COc1cccc(-c2ccc3ncnc(NCc4cnc(C)cn4)c3c2)c1 | – | inactive: -2.02% [at 2.29 µM] |
| CC(C)Oc1ccc2c(=O)c3cc(C(=O)O)ccc3oc2c1 | – | inactive: -7.33% |

| Compound | Potency | activity change, negative = inhibition |
| --- | --- | --- |
| Cc1ccc(C(=O)Nc2ccccc2C(=O)NC(CC(=O)O)C(=O)O)cc1 (stereo not given) | active: 31.6 µM | – |
| CCOc1ccc(CCNC(=O)Cn2c(-c3nonc3N)nc3ccccc32)cc1OCC | – | inactive: 1.46% |
| Oc1c([C@H](Nc2ccccn2)c2ccccc2)ccc2cccnc12 | – | inactive: 1.84% [at 11.4 µM] |
| COc1ccc(S(=O)(=O)Nc2ccc(C)cc2)cc1OC | – | inactive: 1.05% |
| COc1ccc(CC(=O)Nc2cccc(-c3nnc(-c4cccc(C)c4)o3)c2)cc1OC | inconclusive [inhibitor, partial curve] | – |
| CCS(=O)(=O)c1ccc2oc(Nc3ccccc3C)nc2c1 | inconclusive [inhibitor, partial curve] | – |
| COc1ccc(NC(=O)Nc2ccc3c(c2)N(C)C(=O)CS3)cc1OC | inconclusive [inhibitor, partial curve] | – |
| COc1ccccc1-n1nc(C(=O)Nc2ccc3c(c2)OCO3)c2ccccc2c1=O | – | inactive: -2.15% |
| CCc1nnc(NC(=O)CSc2nnc(-c3ccoc3C)n2CC(C)C)s1 | inconclusive [inhibitor, full curve] | – |
| COc1cccc(Nc2ncc3nc(C)c(=O)n(-c4ccccc4)c3n2)c1 | – | inactive: -1.21% [at 11.4 µM] |
| COc1ccc(C(=O)Nc2cccc(C)c2)cc1 | active: 6.31 µM | – |
| Cc1ccnc(-n2sc3ccccc3c2=O)n1 | active: 20 µM | – |
| CCOC(=O)C1CCCN(C(=O)c2cc(Nc3ccc(OC)c(OC)c3)nc3ccccc23)C1 (stereo not given) | active: 15.8 µM | – |
| CC(C)Oc1cc(O)c2c(=O)c(-c3ccc(O)cc3)coc2c1 | active: 12.6 µM | – |
| CCCn1c(=N)c(C(=O)NCc2ccc3c(c2)OCO3)cc2c(=O)n3cccc(C)c3nc21 | – | inactive: 3.74% |
| COC(=O)CSc1nnc(-c2cccc(NC(=O)c3ccc(C)cc3)c2)n1C | inconclusive [inhibitor, single point] | – |
| O=C(NCCN1C(=O)C2C3C=CC(C3)C2C1=O)Nc1ccccc1O (stereo not given) | inconclusive [inhibitor, partial curve] | – |
| COc1ccc(-c2cc(C(=O)N3CCOCC3)c3cc(C)ccc3n2)cc1 | inconclusive [inhibitor, single point] | – |
| Cc1cccc(C)c1OCC(=O)Nn1c(C)nc2ccccc2c1=O | – | inactive: 1.46% |
| CCN(CC)c1ccc2c(C)c(-c3ccc(N)cc3)c(=O)oc2c1 | inconclusive [inhibitor, partial curve] | – |
| CCN1C(=O)[C@@H]2[C@H]3C(=CC[C@H]2C1=O)C(=O)[C@H]1OC1[C@H]3O (stereo not given in full) | – | inactive: -3.44% [at 11.4 µM] |
| Cn1c(NCc2ccccc2Cl)nc2ccccc21 | active: 12.6 µM | – |
| COc1ccc2c(c1)Cc1sc(NC(C)=O)nc1-2 | active: 12.6 µM | – |
| Cn1c(C(=O)NCCc2c[nH]c3ccccc23)cc2sccc21 | inconclusive [inhibitor, single point] | – |
| COc1ccc(-c2nnc(N)s2)cc1 | inconclusive [inhibitor, partial curve] | – |
| CC1Cn2c(nnc2-c2cccc(Cl)c2)S1 (stereo not given) | – | inactive: 3.38% |
